The supplement of paper PMC8728848
Only a selection was taken, and the strongest signals are over-represented in it overall.

How the values were obtained:
Assay in all cases: glycan array binding signal (z-score within array); higher = stronger binding
Settings in all cases: glycan notation: IUPAC condensed, linker removed
[1] = molecular target: Fuc(a1-2)Gal(b1-3)GlcNAc(b1-2)Man(a1-3)[Fuc(a1-2)Gal(b1-3)GlcNAc(b1-2)Man(a1-6)]Man(b1-4)GlcNAc(b1-4)[Fuc(a1-6)]GlcNAc
Summary of the method: (§1)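 Glycan array data came from 3228 arrays in the Consortium for Functional Glycomics database, and only arrays with an available protein sequence were kept. Glycan names were put into IUPAC-condensed notation, and columns mapping to the same glycan were averaged. The binding signal is a within-array Z-score, averaged across arrays of one protein sequence run at different concentrations or buffers and across linkers. A negative Z-score can be read as non-binding.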

[2] = molecular target: Fuc(a1-2)Gal(b1-3)[Fuc(a1-4)]GlcNAc
Summary of the method: as §1

[3] = molecular target: Fuc(a1-2)Gal(b1-3)[Fuc(a1-4)]GlcNAc(b1-3)[Gal(b1-4)GlcNAc(b1-6)]Gal(b1-4)Glc
Summary of the method: as §1

Fuc(a1-2)Gal(b1-4)Glc = molecular target: Fuc(a1-2)Gal(b1-4)Glc
Summary of the method: as §1

[4] = molecular target: Fuc(a1-2)Gal(b1-4)GlcNAc(b1-2)Man(a1-3)[Fuc(a1-2)Gal(b1-4)GlcNAc(b1-2)Man(a1-6)]Man(b1-4)GlcNAc(b1-4)[Fuc(a1-6)]GlcNAc
Summary of the method: as §1

[5] = molecular target: Fuc(a1-2)Gal(b1-4)GlcNAc(b1-3)GalNAc
Summary of the method: as §1

[6] = molecular target: Fuc(a1-2)Gal(b1-4)GlcNAc(b1-3)[Fuc(a1-3)[Gal(b1-4)]GlcNAc(b1-6)]Gal(b1-4)Glc
Summary of the method: as §1

[7] = molecular target: Fuc(a1-2)Gal(b1-4)[Fuc(a1-3)]GlcNAc(b1-2)[Fuc(a1-2)Gal(b1-4)[Fuc(a1-3)]GlcNAc(b1-4)]Man(a1-3)[Fuc(a1-2)Gal(b1-4)[Fuc(a1-3)]GlcNAc(b1-2)Man(a1-6)]Man(b1-4)GlcNAc(b1-4)GlcNAc
Summary of the method: as §1

[8] = molecular target: Fuc(a1-2)Gal(b1-4)[Fuc(a1-3)]GlcNAc(b1-3)GalNAc
Summary of the method: as §1

[9] = molecular target: Fuc(a1-2)[Gal(a1-3)]Gal(b1-3)GalNAc(b1-3)Gal(a1-4)Gal(b1-4)Glc
Summary of the method: as §1

[10] = molecular target: Fuc(a1-2)[Gal(a1-3)]Gal(b1-3)GlcNAc(b1-2)Man(a1-3)[Fuc(a1-2)[Gal(a1-3)]Gal(b1-3)GlcNAc(b1-2)Man(a1-6)]Man(b1-4)GlcNAc(b1-4)[Fuc(a1-6)]GlcNAc
Summary of the method: as §1

[11] = molecular target: Fuc(a1-2)[Gal(a1-3)]Gal(b1-4)GlcNAc(b1-3)[Fuc(a1-2)[Gal(a1-3)]Gal(b1-4)GlcNAc(b1-6)]GalNAc
Summary of the method: as §1

[12] = molecular target: Fuc(a1-2)[Gal(a1-3)]Gal(b1-4)[Fuc(a1-3)]GlcNAc(b1-3)GalNAc
Summary of the method: as §1

[13] = molecular target: Fuc(a1-2)[GalNAc(a1-3)]Gal(b1-3)GlcNAc
Summary of the method: as §1

[14] = molecular target: Gal(a1-3)Gal(b1-3)GlcNAc(b1-6)GalNAc
Summary of the method: as §1

[15] = molecular target: Gal(a1-3)Gal(b1-3)[Fuc(a1-4)]GlcNAc(b1-2)Man(a1-3)[Gal(a1-3)Gal(b1-3)[Fuc(a1-4)]GlcNAc(b1-2)Man(a1-6)]Man(b1-4)GlcNAc(b1-4)GlcNAc
Summary of the method: as §1

Gal(a1-4)GlcNAc = molecular target: Gal(a1-4)GlcNAc
Summary of the method: as §1

Gal(b1-2)Gal = molecular target: Gal(b1-2)Gal
Summary of the method: as §1

[16] = molecular target: Gal(b1-3)GalNAc(a1-3)[Fuc(a1-2)]Gal(b1-4)Glc
Summary of the method: as §1

Gal(b1-3)GalNAc(b1-3)Gal = molecular target: Gal(b1-3)GalNAc(b1-3)Gal
Summary of the method: as §1

[17] = molecular target: Gal(b1-3)GalNAc(b1-4)Gal(b1-4)Glc
Summary of the method: as §1

[18] = molecular target: Gal(b1-3)GlcNAc(b1-2)Man(a1-3)[GlcNAc(b1-4)][Gal(b1-3)GlcNAc(b1-2)Man(a1-6)]Man(b1-4)GlcNAc(b1-4)GlcNAc
Summary of the method: as §1

[19] = molecular target: Gal(b1-3)GlcNAc(b1-3)Gal(b1-4)Glc
Summary of the method: as §1

[20] = molecular target: Gal(b1-3)[Fuc(a1-4)]GlcNAc(b1-2)Man(a1-3)[Gal(b1-3)[Fuc(a1-4)]GlcNAc(b1-2)Man(a1-6)]Man(b1-4)GlcNAc(b1-4)[Fuc(a1-6)]GlcNAc
Summary of the method: as §1

Gal(b1-4)Glc6S = molecular target: Gal(b1-4)Glc6S
Summary of the method: as §1

[21] = molecular target: Gal(b1-4)GlcNAc(b1-2)Man(a1-3)[Gal(b1-4)GlcNAc(b1-2)Man(a1-6)][Gal(b1-4)GlcNAc(b1-4)]Man(b1-4)GlcNAc(b1-4)[Fuc(a1-6)]GlcNAc
Summary of the method: as §1

[22] = molecular target: Gal(b1-4)GlcNAc(b1-3)Gal(b1-4)Glc
Summary of the method: as §1

B1: Avaren-Fc (Actinomycete K97) (protein)
chain: ASGTIRNAETGRCLDSNYNGNVYTLPCNGGNYQRWTGPGDGTVRNAETGRCLDSNYDGAVYTLPCNGGSYQKWTGPGDGTIQNAETGRCLDSNYNGNVYTLPCNGGNYQKWTGGGGSV[in this place human IgG1 Fc with changes]
glycan array binding signal (z-score) [1]: 1.35 | glycan array binding signal (z-score) [2]: -0.173 | glycan array binding signal (z-score) [3]: -0.169 | glycan array binding signal (z-score) (Fuc(a1-2)Gal(b1-4)Glc): -0.173 | glycan array binding signal (z-score) [4]: 2.96 | glycan array binding signal (z-score) [5]: -0.094 | glycan array binding signal (z-score) [6]: -0.182 | glycan array binding signal (z-score) [7]: -0.057 | glycan array binding signal (z-score) [8]: -0.133 | glycan array binding signal (z-score) [9]: -0.175 | glycan array binding signal (z-score) [10]: 2.27 | glycan array binding signal (z-score) [11]: -0.103 | glycan array binding signal (z-score) [12]: -0.157 | glycan array binding signal (z-score) [13]: -0.162 | glycan array binding signal (z-score) [14]: -0.17 | glycan array binding signal (z-score) [15]: 2.13 | glycan array binding signal (z-score) (Gal(a1-4)GlcNAc): -0.171 | glycan array binding signal (z-score) (Gal(b1-2)Gal): -0.173 | glycan array binding signal (z-score) [16]: -0.16 | glycan array binding signal (z-score) (Gal(b1-3)GalNAc(b1-3)Gal): -0.172 | glycan array binding signal (z-score) [17]: -0.171 | glycan array binding signal (z-score) [18]: 3.43 | glycan array binding signal (z-score) [19]: -0.181 | glycan array binding signal (z-score) [20]: 4.1 | glycan array binding signal (z-score) (Gal(b1-4)Glc6S): -0.171 | glycan array binding signal (z-score) [21]: -0.182 | glycan array binding signal (z-score) [22]: -0.171
